Test results taken from PubChem BioAssay AID2676 (National Center for Advancing Translational Sciences (NCATS), 2010).
Out of some 370,000 compounds screened, about 1,100 (0.3%) were called active. Not shown: some 1% with an inconclusive outcome. Calls come from the whole dose curve; as a rule, active = well fitted activation curve with a large enough effect; inconclusive = small, poorly fitted or top-dose-only effect; inactive = flat fitted curve, though single readings scatter. The list shows a part of the results, in another mix than the full data.

target: Relaxin receptor 1 (Homo sapiens) (UniProt Q9HBX9); assay: qHTS Assay for Agonists of the Relaxin Receptor RXFP1; details: HEK293T-RXFP1 cAMP TR-FRET, 30 min; series mostly up to 57.5 µM; activation: at the top concentration; note: nearly all actives have a fitted effect of over 60% in size
Text: NIH Chemical Genomics Center [NCGC] NIH Molecular Libraries Probe Production Centers Network [MLPCN] MLPCN Grant: R03 MH085705-01A1 Assay Submitter (PI): Alexander Agoulnik NCGC Assay Overview: The relaxin hormone is involved in the variety of biological functions in normal tissues and diseases. The role of relaxin is well-established in female reproduction and parturition, mammary gland and endometrial development, maintenance of myometrial quiescence during pregnancy. Relaxin signaling through its G protein-coupled receptor (GPCR) RXFP1 results in ECM remodeling through regulation of collagen deposition, cell invasiveness, proliferation and overall tissue homeostasis. […] Recombinant human relaxin (rhRlx) is currently being tested in clinical trials as a protective agent in congestive heart failure, in treating severe preeclampsia, and as an anti-fibrotic agent in systemic sclerosis. Upon relaxin binding RXFP1 activation leads to the activation of adenylate cyclase (AC) via Gs. cAMP will activate PKA, which phosphorylates many signaling proteins. Thus, detection of cAMP increase is an easy and reliable indication of relaxin receptor activation. To screen for agonists of the relaxin receptor, a HEK293T cell line stably transfected with RXFP1 was used. RXFP1 activation was assayed by changes in cAMP levels as detected with a time-resolved fluorescence energy transfer (TR-FRET) cAMP detection kit.
NCGC Assay Protocol Summary: This is a cell-based assay for cAMP second messenger response to screen for agonists of the RXFP1 receptor. The assay was conducted in the presence of a PDE4 inhibitor (Ro 20174). The cells were lysed and the cAMP levels were measured with a TR-FRET cAMP kit. Presence of cAMP in the cell lysate disrupts binding between the cryptate-labeled anti-cAMP and d2-labeled cAMP pair, leading to a decrease in the TR-FRET signal. Data were normalized to the controls for basal activity (buffer only) and 100% activity (29 nM porcine relaxin). The EC50 values were determined from concentration-response data modeled with the standard Hill equation 1536-well assay protocol for the HEK293 RXFP1 cAMP assay: (1) Add 3 ul HEK293 RXFP1 cell culture. 2000 cells/well in DMEM/F12, 10% FBS, 1x Pen/Strep (dispensed offline with MultiDrop Combi). (2) Incubate 16-24 hr at 37C, 5% CO2. (3) Add 1 ul 400uM Ro20174 in DPBS, 0.05% BSA, 0.005% Tween 20. (3) Add 23 nl compounds in DMSO solution. Final concentration was 0.5 - 58 uM. (4) Incubate 30 min at 37C, 5% CO2. (5) Add 1 ul cAMP-d2 in lysis buffer (HTRF cAMP HiRange kit, CisBio). (6) Add 1 ul anti-cAMP antibody-cryptate in lysis buffer (HTRF cAMP HiRange kit, CisBio). (7) Incubate 30 min at room temperature. (6) Detect the assay plate in a ViewLux plate reader (PerkinElmer) with Ex=320 nm, Em1=615 nm and Em2=665 nm. Keywords: relaxin, RXFP1, RXFP2, G-protein coupled receptor, cAMP, agonist, high throughput screening, MLSMR, MLSCN, NIH Roadmap, qHTS and NCGC
% is set by controls: 0 for no effect and ±100 for the full control effect; potency is the fitted concentration of half-maximal effect.

Sequence of UniProt Q9HBX9 (Q9HBX9 whole entry, looked up): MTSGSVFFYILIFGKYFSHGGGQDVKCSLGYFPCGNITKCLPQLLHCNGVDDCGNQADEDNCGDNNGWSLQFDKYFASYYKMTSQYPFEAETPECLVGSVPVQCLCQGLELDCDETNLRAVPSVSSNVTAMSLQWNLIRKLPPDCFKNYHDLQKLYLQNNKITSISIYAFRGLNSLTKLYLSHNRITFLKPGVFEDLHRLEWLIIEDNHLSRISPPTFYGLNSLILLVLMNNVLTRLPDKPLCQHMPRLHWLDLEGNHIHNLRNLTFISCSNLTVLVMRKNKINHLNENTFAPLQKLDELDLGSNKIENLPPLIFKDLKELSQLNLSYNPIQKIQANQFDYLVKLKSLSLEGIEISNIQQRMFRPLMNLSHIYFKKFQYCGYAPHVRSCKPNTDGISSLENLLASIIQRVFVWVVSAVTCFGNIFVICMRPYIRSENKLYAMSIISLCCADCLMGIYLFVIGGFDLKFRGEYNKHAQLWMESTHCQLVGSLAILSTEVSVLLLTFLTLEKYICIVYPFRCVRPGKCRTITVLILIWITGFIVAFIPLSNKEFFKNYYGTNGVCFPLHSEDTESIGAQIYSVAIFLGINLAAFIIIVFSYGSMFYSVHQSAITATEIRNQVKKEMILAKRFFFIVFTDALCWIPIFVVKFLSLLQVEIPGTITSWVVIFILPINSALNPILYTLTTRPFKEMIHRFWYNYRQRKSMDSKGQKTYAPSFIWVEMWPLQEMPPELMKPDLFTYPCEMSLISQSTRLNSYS

Compound | Potency | activation
O=c1[nH]c(O)c(N=Nc2ccc([N+](=O)[O-])cc2)c(=O)[nH]1 | active: 14.1 µM | 
Nc1ncc2[nH]cnc2n1 |  | inactive: 2.2%
CCCNC1=C(C)C(=O)C2=C(C1=O)C(COC(N)=O)[C@]1(OC)C3NC3CN21 (stereo partly specified) |  | inactive: -55.4%
O=c1[nH]c(=S)n(C2CC2)c(O)c1C=NCc1ccc(F)cc1 | active: 25.1 µM | 
O=C1NC(=S)NC(=O)C1=Cc1ccc2c(c1)CCN2CCCCl |  | inactive: -33%
CC[n+]1c(/C=C/C=C/c2ccc(N(C)C)cc2)sc2ccccc21 |  | inactive: -30.3%
